Laboratory results published in PubChem BioAssay AID686978 (National Center for Advancing Translational Sciences (NCATS), 2013).
Hit rate of the full screen: of about 420,000 compounds, about 64,000 (15%) were called active. Inconclusive results, whose numbers are uncertain, are shown with a selection of clear calls. Calls come from the whole dose curve; as a rule, active = well fitted inhibition curve with a large enough effect; inconclusive = small, poorly fitted or top-dose-only effect; inactive = flat fitted curve, though single readings scatter. Potencies of inconclusive entries are left out as doubtful fits.

Experiment: qHTS for Inhibitors of human tyrosyl-DNA phosphodiesterase 1 (TDP1): qHTS in cells in absence of CPT; note: nearly all actives have a fitted effect of over 55% in size
Conditions: DT40 Tdp1-/- hTDP1 cells, no CPT, ATP luminescence, 48 h; activity change, negative = growth inhibition: at 46.2 µM (top of the series) unless noted
Summary of the method: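 Luminescent ATP content (CellTiter-Glo) served as the growth readout. Knockout chicken DT40 cells expressing human TDP1 were exposed to compounds without camptothecin for a minimum 48 hr at 37 °C.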
% is set by controls: 0 for no effect and ±100 for the full control effect; potency is the fitted concentration of half-maximal effect; tags give direction and shape of the fitted curve.

SMILES	activity change, negative = growth inhibition	Potency
CCOc1ccccc1NC(=O)CS(=O)(=O)c1cn(CC(=O)N2CCOCC2)c2ccccc12	inactive: -16.3%	
COc1ccc(Cl)cc1N/C(N)=N/c1nc(C)cc(=O)[nH]1	inactive: 6.96%	
CCC(C)N(C(=O)COC(=O)CCc1c[nH]c2ccccc12)C1CCS(=O)(=O)C1 (centres undefined)		inconclusive [inhibitor, single point]
Cc1ccc(N2C(=O)C(CN3CCOCC3)C2c2ccccc2)cc1 (centres undefined)		active: 14.6 µM
CCCNC(=O)C1(C)CCCN(C(=O)c2cc(C(C)(C)C)nn2C)C1 (centres undefined)	inactive: -17%	
COc1cccc(/C=N/Nc2cc(-n3nc(C)cc3-c3ccccc3)ncn2)c1O		active: 0.651 µM
O=C(NCCS(=O)(=O)N1CCCC1)c1ccccc1	inactive: -14.2%	
O=C1NN=C(c2ccc(Cl)cc2)CC1c1cccc(Cl)c1 (centres undefined)		active: 16.4 µM
CCN(CC)S(=O)(=O)c1cc(NC(=O)CCNC(=O)c2ccco2)ccc1C		inconclusive [inhibitor, single point]
COc1cc(NC(=O)NCCn2nnc3cc(S(=O)(=O)N(C)C)ccc32)cc(OC)c1	inactive: -2.55%	
CSc1cccc(NC(=O)CC(C)n2ccnc2)c1 (centres undefined)	inactive: 0.597%	
CNC(=S)N1CCC(NC(=O)C23CC4CC(CC(C4)C2)C3)CC1		inconclusive [inhibitor, single point]
Cc1ccc(Cn2c(C(=O)O)c(CNCc3cccs3)c3ccc(C)cc32)cc1		inconclusive [inhibitor, single point]
COc1ccc(NC(=O)c2ccc3c(c2)nnn3C2CCCC2)cc1Cl	inactive: -24.7%	
CC(C)(C)Cc1nnc(NS(=O)(=O)c2ccc(F)cc2)s1		inconclusive [inhibitor, partial curve]
COc1cccc(C(=O)NCCSCc2c(F)cccc2Cl)c1		inconclusive [inhibitor, single point]
CC(C(=O)OCC(=O)Nc1ccc(S(N)(=O)=O)cc1)N1C(=O)c2ccccc2C1=O (centres undefined)	inactive: -2.53%	
Cc1ccc(S(=O)(=O)Nc2ccnc3ccccc23)cc1		active: 20.6 µM
CCOC(=O)CNS(=O)(=O)c1cc(-c2n[nH]c(=O)c3ccccc23)ccc1C	inactive: -15%	
Oc1ccc(/C=N/NC(=S)NCC2CCCO2)cc1 (centres undefined)	inactive: 1.84%	
CCN(C(=O)c1cc(S(=O)(=O)N2CCc3ccccc32)cn1C)c1cccc(C)c1		active: 13 µM
COc1ccc(-c2nc(C#N)c(NCc3ccc(C)cc3)o2)cc1OC		inconclusive [inhibitor, single point]
CC(C)CC1NC(=O)c2cc3ccccc3cc2-n2c1nc1ccc(F)cc1c2=O (centres undefined)		active: 23.1 µM
CS(=O)(=O)N1CCC(C(=O)Nc2cc(C(F)(F)F)ccc2Cl)CC1	inactive: 1.36%	
c1ccc(-c2csc(Nc3ccc4c(c3)OCO4)n2)cc1		inconclusive [inhibitor, single point]

SMILES	activity change, negative = growth inhibition	Potency
CC1Sc2ccc(S(=O)(=O)CCC(=O)N(C)Cc3ccco3)cc2NC1=O (centres undefined)	inconclusive: -45.8% [inhibitor]	
CS(=O)(=O)NCc1ccc(C(=O)NCc2ccccc2)cc1	inactive: -11.1%	
O=[N+]([O-])c1ccccc1Nc1nc(-c2cccnc2)cs1		inconclusive [inhibitor, single point]
CCOC(=O)N1CCN(c2c(N3CCN(c4cccc(C(F)(F)F)c4)CC3)c(=O)c2=O)CC1	inactive: -25%	
O=C1CNC(=O)N1CC(=O)N1CCCc2ccccc21	inactive: 4%	
CCCCn1nc2cc(C(=O)N[C@H](C)C3CCCCC3)ccc2c1OCC		inconclusive [inhibitor, single point]
CCCCN(C)C(=O)c1cc2c(Cl)nc3ccccc3c2s1		inconclusive [inhibitor, partial curve, poor fit]
Cc1cc(C)c(S(=O)(=O)Nc2ccc(O)c(Sc3ncn[nH]3)c2)cc1C		inconclusive [inhibitor, partial curve, poor fit]
O=C(CCCN1C(=O)/C(=C/c2ccc(F)cc2)SC1=S)NC1CCS(=O)(=O)C1 (centres undefined)		inconclusive [inhibitor, single point]
Cc1ccc(C=Nc2ccccc2C(=O)Nc2ccccc2)cc1		active: 11.6 µM
CC(=O)Oc1ccc(C2(C)CC(C)(C)NC(=S)N2C)c(OC(C)=O)c1 (centres undefined)	inactive: 3.42%	
O=C(O)C1Cn2c(nc3c(c2=O)C2(CCCC2)Cc2ccccc2-3)S1 (centres undefined)	inactive: 14.8%	
CC1CCCC(C)N1/N=C/c1ccc(C#N)cc1 (centres undefined)		inconclusive [inhibitor, single point]
COc1ccc2cc(-c3[nH]ncc3CN3C[C@@H]4CCC[C@H]3C4)ccc2c1		inconclusive [inhibitor, single point]
COc1ccc(-c2noc(CCCC(=O)NC3CCCCC3)n2)cc1		active: 23.1 µM
O=C(Nc1cccc(C(F)(F)F)c1)C1Cc2c(-c3ccccc3)ccnc2O1 (centres undefined)		active: 25.9 µM
Cc1cc(C(=O)Nc2ccccc2-c2nc(CNC(=O)c3ccccc3Cl)c(C)o2)c(C)o1	inactive: -5.9%	
Cc1ccc([N+](=O)[O-])cc1NC(=O)C(Sc1ccccc1)c1ccccc1 (centres undefined)		active: 16.4 µM
CC(=O)c1ccc(S(=O)(=O)Nc2ccc(C(=O)NCC(c3cccs3)N3CCOCC3)cc2)cc1 (centres undefined)		inconclusive [inhibitor, single point]
Oc1ccc(C(O)CNCCCCCCNCC(O)c2ccc(O)c(O)c2)cc1O (centres undefined)		inconclusive [inhibitor, single point]
O=C(/C=C/c1cc([N+](=O)[O-])ccc1OC(F)F)Nc1cccc([N+](=O)[O-])c1	inactive: 1.62%	
Cc1ccc2c(c1)-c1c(ssc1=S)C(C)(C)N2C(=O)CN1C(=O)c2ccccc2C1=O		inconclusive [inhibitor, single point]
COC(=O)CC/C(O)=C1\C(=O)CC(C)(C)CC1=NCc1nc2ccccc2[nH]1	inconclusive: -31.1% [inhibitor]	
COc1ccc(OCCCC(=O)Nc2cccnc2)cc1	inactive: -27%	
Cc1ccc(-c2cc(C(=O)N3CCN(C4CCS(=O)(=O)C4)CC3)c3ccccc3n2)cc1 (centres undefined)		inconclusive [inhibitor, single point]

SMILES	activity change, negative = growth inhibition	Potency
CCOc1ccc(/C=N/n2c(COc3ccccc3)n[nH]c2=S)cc1OC		inconclusive [inhibitor, single point]
CS(=O)(=O)N(CC(=O)Nc1ccccc1C(=O)NCCc1ccccc1)c1ccc2c(c1)OCCO2		active: 20.6 µM
Cc1ccc(Cl)cc1N1CCN(C(=O)c2cccn2-c2nnc(N3CCCC3)s2)CC1		active: 14.6 µM
CCCSc1ccc([C@@H]2[C@H]3C(=O)N(CC)C(=O)[C@H]3[C@]3(C(=O)OC)CCCN23)cc1		inconclusive [inhibitor, single point]
Cc1ccc(NC(=O)CSc2nnc(-c3ccccn3)n2N)cc1F	inactive: -9.76%	
COC(=O)N[C@@H]1C[C@H]2[C@@H]3CC[C@H]4C[C@@H](OC)CC[C@]4(C)[C@H]3CC[C@@]12C		active: 14.6 µM
O=C(CSc1nnc(-c2ccco2)o1)NC1CCCCC1		inconclusive [inhibitor, partial curve, poor fit]
CCN(CCC(=O)O)c1ccc(/C=C/c2ccnc3ccccc23)cc1		inconclusive [inhibitor, single point]
Cc1nn(Cc2ccccc2)c2c1C(c1cccnc1)C(C#N)=C(N)O2 (centres undefined)		inconclusive [inhibitor, single point]
O=C(NC(=S)N1CCN(c2ccccc2)CC1)c1c(F)cccc1F	inactive: -26.9%	
O=[N+]([O-])c1nn(-c2ccc(Cl)cc2)n(O)c1=NCc1ccncc1		active: 10.3 µM
Cc1ccc(NS(=O)(=O)c2cccc(C(=O)NNC(=O)c3ccco3)c2)c(C)c1		inconclusive [inhibitor, single point]
O=C1CCCN1CN(C(=O)c1ccccc1)c1ccc(F)cc1		inconclusive [inhibitor, single point]
CCC(C)[C@H]1CNC(=S)N1CCC12CC3CC(CC(C3)C1)C2 (some centres undefined)		active: 14.6 µM
O=C(NC1CCCC1)C(c1ccncc1)N(CCCN1CCOCC1)C(=O)c1ccc(-c2ccccc2)[nH]1 (centres undefined)	inactive: -23%	
Cc1cccc(C(=O)OCc2cc(=O)n3nc(C4CCCCC4)sc3n2)c1	inconclusive: -31.9% [inhibitor]	
COc1ccc2[nH]c(S(=O)Cc3ncc(C)c(OC)c3C)nc2n1 (centres undefined)		active: 26.6 µM
O=C(COc1ccc(Br)cc1F)NC1CC1		inconclusive [inhibitor, single point]
COc1cc(-c2nnc(SCC(=O)c3ccccc3)o2)cc(OC)c1OC		inconclusive [inhibitor, single point]
C=CCN(c1ccccc1)S(=O)(=O)c1cccc(C(=O)Nc2nnc(SCC)s2)c1		inconclusive [inhibitor, single point]
COc1ccc(Cc2c(-c3ccc(C#N)cc3)nc3c4ccccc4ccn23)c(C)c1		inconclusive [inhibitor, partial curve]
Cn1c(=O)c2c(nc(NCCNC(=O)c3ccco3)n2Cc2ccccc2)n(C)c1=O		inconclusive [inhibitor, single point]
O=C(Nc1ccc2c(c1)OCCO2)C1CCN(C(=O)c2ccc(Br)cc2)CC1		inconclusive [inhibitor, single point]
O=C(CSc1nc(C2CC2)nc2ccccc12)N1CCc2ccccc21	inactive: -8.5%	
